Results: PMC6919601, “Identification of Plasmodium dipeptidyl aminopeptidase allosteric inhibitors by high throughput screening” (PLoS ONE, 2019)
In all, about 110,000 compounds went through this assay and about 230 (0.21%) showed an effect of 50% or more. Some of the results follow.

target: DPAP1 (Plasmodium falciparum, UniProt Q8IIJ9); assay: primary screen, percent inhibition; read by cleavage of a fluorogenic dipeptide substrate; higher = more effect of the substance; parameters: species or system P. falciparum D10 trophozoite lysates; single well
Sequence (Q8IIJ9 whole entry, looked up): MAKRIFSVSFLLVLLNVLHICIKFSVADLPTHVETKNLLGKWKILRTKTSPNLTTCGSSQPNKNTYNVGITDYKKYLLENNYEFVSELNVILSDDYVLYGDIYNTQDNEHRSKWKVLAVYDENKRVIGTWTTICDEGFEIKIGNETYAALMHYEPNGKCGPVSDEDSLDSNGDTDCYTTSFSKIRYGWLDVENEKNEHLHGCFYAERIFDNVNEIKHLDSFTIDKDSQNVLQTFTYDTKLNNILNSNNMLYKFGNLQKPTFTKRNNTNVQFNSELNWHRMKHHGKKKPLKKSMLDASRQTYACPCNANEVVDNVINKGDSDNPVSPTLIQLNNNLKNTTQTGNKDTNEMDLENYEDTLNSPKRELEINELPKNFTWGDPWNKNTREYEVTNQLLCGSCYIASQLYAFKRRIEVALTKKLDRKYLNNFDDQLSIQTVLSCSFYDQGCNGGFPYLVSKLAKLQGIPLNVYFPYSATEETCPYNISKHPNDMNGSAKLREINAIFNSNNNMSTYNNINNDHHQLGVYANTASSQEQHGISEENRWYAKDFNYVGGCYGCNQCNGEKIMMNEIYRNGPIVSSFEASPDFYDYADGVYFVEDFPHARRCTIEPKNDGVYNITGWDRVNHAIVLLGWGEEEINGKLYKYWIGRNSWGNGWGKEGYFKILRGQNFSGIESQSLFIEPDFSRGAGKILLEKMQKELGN
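Further: 30 min substrate incubation versus DMSO and 10 µM JCP410 controls.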

Compound	% Inhibition @ 10 uM
Cc1nc2cc(-c3ccc(Cl)cc3)nn2c(C)c1CCC(=O)NC(C)c1cccs1 (centres unmarked)	-8.02%
CCCS(=O)(=O)n1nc(-c2ccc(OC)cc2OC)cc1N	5.77%
CCOC(=O)C1=C(C)NC(=O)NC1c1ccccc1 (centres unmarked)	-5.9%
COc1ccc(CCNC(=O)Cn2ncc3c2-c2ccccc2OC3)cc1OC	-1.66%
N#Cc1cc2c(nc1SCc1ccccc1)CCC2	-0.759%
COc1ccccc1C(=O)N1CCC2(CC1)N=C(c1ccc(C)cc1)C(=O)N2	-0.48%
Cc1ccc(NC(=O)CN(C2CCCCC2)S(C)(=O)=O)c(C)c1	-0.545%
CNC(=O)CCc1nc(-c2ccccc2)no1	3.62%
Cc1c(C(=O)/C=C/c2ccccc2Cl)c2cc(O)ccc2n1C	-2.7%
O=C(Nc1cccc(C(F)(F)F)c1)c1cc2ccccc2oc1=O	4.67%
Cc1cc(NC(=O)c2cc3n(n2)C(C(F)(F)F)CC(c2ccc(Cl)c(Cl)c2)N3)no1 (centres unmarked)	-0.142%
CC(C)Cn1c(-c2ccc(S(=O)(=O)N3CCOCC3)cc2)cs/c1=N\c1ccc(F)cc1	-0.622%
CCCNC(=O)c1cc2ncc(Br)cn2n1	1.04%
CCOC(=O)c1c(C)n(C)c2ccc(OCC(O)Cn3nc(C)cc3C)cc12 (centres unmarked)	-5%
COc1ccc(C(=O)CSc2nc(O)c3c(C)c(C)sc3n2)cc1C	-7.18%
CCN(CC)C(=O)c1ccc(COc2ccccc2Br)o1	-5%
O=C(CC1OCC2CCCCN2C1=O)Nc1ccc(F)cc1 (centres unmarked)	6.61%
CCOc1cc(C=C2C(=O)NC(=O)NC2=O)ccc1OCC(=O)O	-6.6%
O=C(O)c1ccc(CSc2ccccn2)cc1	2.67%
CCOC(=O)C1=C(C)N=c2s/c(=C/c3ccccc3F)c(=O)n2C1c1ccccc1F (centres unmarked)	13.1%
Cc1cc2c(c(=O)o1)C(c1ccc(-c3ccccc3)cc1)C(C#N)=C(N)O2 (centres unmarked)	0.317%
Cc1ccc(Cl)cc1N1CCN(C(=O)COc2ccc(S(=O)(=O)NCC(C)C)cc2)CC1	-3.92%
CC1=C(C(=O)OCc2ccccc2)C(c2ccccc2Cl)NC(=O)N1 (centres unmarked)	0.219%
COc1ccccc1CC(=O)NCc1nc(-c2ccc(Cl)cc2)no1	-2.99%
O=C(O)C1C2C=CC(C2)C1C(=O)Nc1nc(-c2ccccc2)cs1 (centres unmarked)	1.67%
Cc1ccc(C(=O)Nc2ccc3c(c2)OCO3)cc1C	1.65%

Compound	% Inhibition @ 10 uM
Cc1ccc(-n2ncc3c(O)nc(SCC(=O)c4ccccc4)nc32)cc1	-1.54%
COc1ccccc1N1CCN(C(=O)Nc2cccc(Cl)c2)CC1	-5.61%
C=CCOC(=O)C1=C(C)N=C(S)NC1c1ccc(C(C)(C)C)cc1 (centres unmarked)	1.52%
CCOc1ccc(N(CC(=O)Nc2c(C)cccc2C)S(C)(=O)=O)cc1	2.22%
O=C(N[C@@H](Cc1cc(I)c(O)c(I)c1)C(=O)NC/C=C/S(=O)(=O)c1ccccc1)c1ccc(Br)cc1	-3.04%
CC1CC(C)CN(C(=O)c2cc(-c3ccccn3)nc3ccc(S(=O)(=O)N4CCOCC4)cc23)C1 (centres unmarked)	3.47%
CCOC(=O)C1=C(C)N(CCOC)C(=O)/C1=C\c1ccccc1F	-5.26%
O=S(=O)(Nc1cc(C(F)(F)F)ccc1Cl)c1cc(Cl)ccc1Cl	-5.32%
c1ccc(CCNc2ncnc3c2cnn3-c2ccccc2)cc1	10.6%
COc1ccc2nc3sc(C(=O)Nc4nc5ccccc5s4)cc3cc2c1	-6.29%
CC/N=C(/Nc1[nH]nc(C)c1-c1ccccc1F)SC	-2.28%
O=C(CCC1CCCC1)N1CCN(Cc2ccccc2)CC1	-6.17%
Cc1csc(C)[n+]1CC(=O)c1ccccc1	-11.1%
CN1C(=O)CC(C(=O)Nc2ccc(F)cc2)S/C1=N\c1cccc(C(F)(F)F)c1 (centres unmarked)	-3.95%
Cc1cccc(NC(=O)COc2ccc(S(=O)(=O)NC3CCCCC3)cc2)c1	-0.891%
O=C(CCCn1nc(-c2ccccc2)c2cc(Cl)ccc21)NCCCN1CCCC1=O	0.291%
CCOc1cc(C2NC(=O)NC(C)=C2C(=O)Nc2ccc(Br)cc2)ccc1O (centres unmarked)	4.03%
CC(=O)Nc1cccc(NC(=O)c2ccccc2)c1	3.35%
CCOC(=O)C1CCN(Cc2cccc(Cl)c2Cl)CC1	-3.56%
COc1ccc(-c2nc(CS(=O)CC(=O)N3CCN(Cc4ccccc4)CC3)c(C)o2)cc1OC (centres unmarked)	-4.71%
CC(C)c1ccccc1OCC(=O)Nc1ccc(S(=O)(=O)N2CCc3ccccc32)cc1	-3.26%
CN(CCc1ccccn1)CC1CC2C=CC1C2 (centres unmarked)	-1.21%
COc1cc(CN2CCN(C3C4CC5CC(C4)CC3C5)CC2)cc(OC)c1OC (centres unmarked)	-4.7%
Cc1cc(C)c(S(=O)(=O)N2CCCC2=O)c(C)c1	2.51%
COCCCN(C(=O)NCc1noc2ccccc12)C(C)c1ccncc1 (centres unmarked)	-0.826%
COC(=O)c1cccc(/C=N/N=C(/N)SC)c1O	2.8%

Compound	% Inhibition @ 10 uM
CCCN1CCC(NCc2ccccc2C(F)(F)F)CC1	-3.57%
Cn1c2ccc([N+](=O)[O-])cc2c2c(O)nccc21	1.4%
Nc1nnnn1/N=C/c1ccccc1OCc1ccc(Cl)cc1Cl	6.11%
c1ccc2oc(-c3ccc(-c4nc5ccccc5o4)s3)nc2c1	-0.294%
O=C(c1cc2ccc3cccnc3c2[nH]1)N1CC=C(c2ccccc2)CC1	0.184%
CCC(C)NC(=O)C(CC)n1nc(C)c2sc3ccccc3c2c1=O (centres unmarked)	-1.81%
O=C(C1CCC1)N1CCN(c2ccccn2)CC1	-8.67%
Cc1ccc(NC(=O)[C@@H]2C3C=CC(C3)[C@@H]2C(=O)O)c(C)c1 (some centres unmarked)	-4.66%
O=c1[nH]c(=O)n(-c2ccc(Cl)cc2)c2c1C(C(F)(F)F)(C(F)(F)F)NC(c1ccco1)=N2	1.93%
Cc1nn(CCCC(=O)NC2CCCC(C)C2C)c(=O)c2cc3sccc3n12 (centres unmarked)	-3.35%
O=C(c1ccco1)N1CCN(c2c3c(nc4nncn24)CCC3)CC1	-0.808%
CCOc1ccc(CN2CCN(c3ccccc3Cl)CC2)cc1	-6.21%
O=S(=O)(c1ccc(OC(F)(F)F)cc1)N1CCN(c2ncccn2)CC1	4.83%
Cc1ccc2nc(O)c3cc(C(=O)N4CC(C)CC(C)C4)sc3c2c1 (centres unmarked)	-3.94%
O=C1C(Cl)=C(Nc2ccccc2)C(=O)N1c1ccccc1	4.75%
CCCC(=O)Nc1nc2ccc(OCC)cc2s1	4.64%
Cc1ccc(S(=O)(=O)N2CCOCCOCC2)cc1	-9.81%
Cc1ccc(Cn2c(=O)c3ccccc3n3c(CCC(=O)NCc4ccccc4)nnc23)cc1	-0.692%
Cc1cc(C)c2c(n1)sc1c3c(c(O)nc12)C(c1cccc(Cl)c1)C(C#N)=C(N)O3 (centres unmarked)	0.726%
c1ccc2c(c1)n(CCN1CCOCC1)c1nc(C34CC5CC(CC(C5)C3)C4)cn21	0.605%
CCOC(=O)Nc1ccc2c(C)cc(=O)oc2c1	0.467%
Cn1c(=O)c2sccc2n2c(CCCC(=O)N3CCOCC3)nnc12	-2.76%
CCOCCCNC(=O)CCn1nc(-c2ccccc2)ccc1=O	-5.43%
COCCNC(=O)Cn1ncc2c3ccccc3n(Cc3ccccc3F)c2c1=O	3.4%
Cc1onc(-c2ccccc2)c1C(=O)NC(CC(=O)O)c1ccc(OC2CCCC2)cc1 (centres unmarked)	1.32%
Cc1ccc(-c2ccccc2)n1-c1ccc2ncccc2c1	2.05%

Compound	% Inhibition @ 10 uM
O=C(O)CC(NC(=O)Cc1ccc(Cl)cc1)c1ccco1 (centres unmarked)	-1.24%
COc1ccc(C(=O)Nc2nonc2NC(=O)c2ccc(OC)cc2)cc1	-0.0735%
Cc1cc(C)c(C(=O)O)[nH]1	4.35%
c1ccc(CN2CCOCCN(Cc3ccccc3)CCOCC2)cc1	-0.968%
Cc1ccc(NC(=O)Cc2ccc(F)cc2)cc1O	4.31%
CC(=O)OC(CN1CCCCCC1)c1ccccc1 (centres unmarked)	-5.28%
CCCc1nn(C)c2c(O)nc(-c3cc(S(=O)(=O)Nc4ccc(C)cc4)ccc3OCC)nc12	-3.39%
COc1ccc(CCNc2nnc(C)c3nnn(Cc4ccccc4Cl)c23)cc1	9.21%
CCOC(=O)N1CCN(C(=O)COc2ccc(C(C)C)cc2Br)CC1	3.87%
CCOCCCNC(=O)c1cnn(-c2ccc(C)cc2)c1C1CCN(C(=O)OC(C)(C)C)CC1	-0.707%
Cc1ccccc1CN1CCN(C)CC1	-5.61%
O=C(CCS(=O)(=O)Cc1ccc(Cl)cc1)NCCCN1CCOCC1	-0.0542%
C=C(C)Cn1c(CN2CCOCC2)nc2c1c(=O)n(C)c(=O)n2C	2.31%
Cc1cccc(NC(=O)C2c3ccccc3C(=O)N(C3CCCC3)C2c2cccs2)n1 (centres unmarked)	1.69%
O=C(c1ccc(F)cc1)N1CCN(c2ccccc2)CC1	-1.59%
O=C(NCc1ccco1)c1cc2nc(-c3cccs3)cc(C(F)(F)F)n2n1	2.65%
COC(=O)c1cc(-c2cccc(N)c2)nc2ccccc12	1.38%
Cc1cccc(OCCCCSCc2nc3ccccc3[nH]2)c1	4.8%
CCC(C)c1ccccc1OCC(=O)Nc1ccccc1C(N)=O (centres unmarked)	-1.89%
CCC(C)N1CCN(C(=O)C2CCN(S(=O)(=O)c3c(C)noc3/C=C/c3ccco3)CC2)CC1 (centres unmarked)	0.458%
Cc1cn(C(=O)c2cccc(Br)c2)c(C)n1	-1.81%
CC(CNC1CCN(C)CC1)c1ccccc1 (centres unmarked)	-8.55%
COc1cc(OC)cc(C(=O)Nc2cc(Cl)ccc2C)c1	6.37%
